In all, about 2,300 sequences were measured (“median log2 fold change of GCK-ALFA target abundance (FLAG IP / Myc IP barcode read proportion)”: median about 0.095, lowest 2% from about -0.47 on). This is one part of the list.
B1: LC3A_free_8_2476 (protein)
chain: KVEELVKKITALLDKLEEESTKLAKELGVDELDILELELAIGSAIAELISASDKSIEEVRKVAEEEMAEIKEIAKELGEEIYKLVEETTKEILKLIEEAE
B2: LC3A_28_876 (protein)
chain: MSVEEALAAAEAEVDAAVAAGEEALVEVVITEPISEEEARALVAGLEAIVARGASLPRLDIVISLSTKVSQAARDIIADGAEAIEARYPHVTVIIALEEE
B3: LC3A_127_218 (protein)
chain: MLEEILELVDEAARLADKLVEDPSLDEEKALKEIEELLKKALELAKKAGLPEEVIKDIEEALKLVKEAKKANPEERKELLERAALLADGVAIEIESLILK
B4: LC3A_3_1776 (protein)
chain: AEELIKETLEKLKEAGKSEETIEAAREVMTKLKEKGYEEALKTLVEELEKLLDIPDEILLDMLKDVLELLETEDLSEEEIIERIKEEARLARNEAEIEEL
B5: LC3A_28_794 (protein)
chain: AAIEATLAAARKEAEEAKAKGEEVHLTITVPAGTTVEDAKKIVAGMEEIAEFAKDLPSVSIVVDLEAGVSQEVIDVLAEGGERIEEKYPNVNVVIALAEE
B6: LC3A_free_26_2139 (protein)
chain: EKFVDIYLIDEAIDALEKAKELAKKIEGIGEKLVKLLEEALKLIEKETLESLEKAIKILKEIKELIEKDKTIDEETKKELLELVTKALEKVEEVVKIMKE
B7: LC3A_127_169 (protein)
chain: KLKELLEKILEKAEELSKLLQDPNATLEEIEKQAEELLKLAEEALKLDKEVQPVLEDAKQLLEVIKKAKEADEATQEELREQALLLLEGIIIETELLLLK
B8: LC3A_6_2067 (protein)
chain: VKVRVEIDVLLPEENEEEATEKAVEIAKKGTEELKKELEEKGYLGEEFKVEIIVEPGFVTVRIDLTVKEEAVPLVEKKAVELQDELSKVADAVLLSIEVE
B9: LC3A_141_367 (protein)
chain: MVKELKFEKENLNEDEAIKFMEEVEKKVLEEAKKVNAKKVKIKVEVTVHDPKTGKTTKYKFEDETTYENLDEVLEGFLIEVASLASNNLVSIKVEVTLEK
B10: LC3A_3_1865 (protein)
chain: MEEIKKEILELLKKLGRSEETIAEAEKLAEALIERGYEEALKELLEELKKLKNVSDEILLAMFKDLLRKLETENLNEEEIIKTIKEEARIALNENEIEEL
B11: LC3A_28_808 (protein)
chain: SLADEIIEAFKAKVDAAIAAGESTTITVEIPAELTPEEARRVAEAVYEAMVKAHKEVGLSVVIDADHRVSPEVLKIFSEMADRLEEEGVPAIIALDEPEK
B12: LC3A_28_982 (protein)
chain: NEIKEELEKKLKEAKEAAEKGEPAVITINVKGTTNEEEADLIIKTLEEIAEILKDVEGSAIIISIDRGVDQKIRDRLIEKGEEIEKKYPKVTVIFALDEE
B13: LC3A_28_821 (protein)
chain: SAVEERAERFLEEARRAAESGEETTLVLEVESSDTLEDAELLAEALREAAELLAPLKSVGIIIDFTEPVDQEVQDLLAETAEEVEERYPNVSVVIALPEE
B14: LC3A_28_986 (protein)
chain: SHMEEALAAALAAAREAAARGEARVFTITVPATATQEDIDLAVEALEEIGEILRGVKGSAIIIDLEAGVPQEHIDKLADAAERVEERNPDVSVIFALDED
B15: LC3A_147_439 (protein)
chain: YLVSADVDILTKDAEEEIIKHFEELKKELEEKGFEVKLEIEVEELENGVKYIHIKIDVKAETKEEAEEAANLIIDSVEELEEKLKDKILGSIVSVEIEEA
B16: LC3A_28_815 (protein)
chain: MTAEEIIKQIREQAEKGKQSDEMVLIEVKISGTITEEEAKEIMEVIREESAELAKDRPVAVLIDLEAPISQEVIDLIADMAEEIEKELPNVSVIIALPEE
B17: LC3A_147_410 (protein)
chain: WIVEVDVDILTKDAEEEVIEYFEELVEELKKEGYKVELEIEVEKLPNGETYIEVKITVEAETEEEAKEAAQKILDRIDEMEEKLKDKILGSLISVEISKK
B18: LC3A_28_702 (protein)
chain: SHIEKQIKKAKEIVDEAVAKGEDALLEFTITGSDTQEDIEKKLETIEEAAEKMSDVAKLYVVVDVGKDVPQERIDYIADKLEEIEEKYPNVTSVIALDEN
B19: LC3A_3_1737 (protein)
chain: MEEKLEEVRERLEELGFSPEVIEAALRVAEALLERGFEEAVEVLLEELERLKDLPDEILLAMLEDILAYVESNDVSEEEVIEKIREEARIARNEAEIEEL
B20: LC3A_40_1915 (protein)
chain: MYTLSIDILADDPAATAAALDAAIEKIKAKIKSEEGEKIIAAFDEMRAQAAAGQPAEATIEGISLEEANTVVQILEEAEAALHAAGVKVAALISIEEEEE
B21: LC3A_free_39_2218 (protein)
chain: MEEEIEKLIKEIAEESGLDYEEVKKKLEEIKEVGGLSNEQMLEIAKALLEAVKAGADAKEILEEMLKIAKELTAKGKSPEEIAKEILQTIEDYRNLVPLE
B22: LC3A_132_282 (protein)
chain: GEEEAEKVIKEIKKLVEEAKENADDEEKVRELLEKLRKFLEKVAKEKSPEVVAKAFKVAADELDELSRLLAEKGKEELALEADSLAIEAASLSDRAEKKI
B23: LC3A_28_967 (protein)
chain: SRLEESLEKALKEAKEAAKKGEAKTIVIKVPGDTTEEDVEKVIEALEEIAEILKDVKGAAILIDVEPGVSQEHIDKLADAAEEIEEKYPNVTVIIALEEE
B24: LC3A_17_561 (protein)
chain: MEEIKKEVEELLEELEEAVEEAKELFPEKEEELEEKLEEIKELIKEGKLKEALEKAAELADEIADLAEEGEEEDPERMSLLLMDANGIEIEAIGLLLKLE
B25: LC3A_3_1481 (protein)
chain: MEEELEKAVAALKAAGKSQETIDALKKAVNALIEKGYENAAKVLIDEMLKHIDLPDEDLLAAAELALELVETSSLDEEEIAARIRQIFDDVAGIEALDEE
B26: LC3A_147_476 (protein)
chain: YKVEVDIDILTKDAEEEIKEELKKIVEELKEKGYKVELEIEEEKLEDGSTYIHAKITIEAETLEEAKEAANLVIDKLDEMEEKLKDKILGSLISVEITEK
B27: LC3A_127_175 (protein)
chain: ELEELLKKLLEVAEELSEELSKPDADLEEIERLVKEAIELAKKALELDPRAEPILEAAEEIKKQLEQYKKAPEEKKEELREHMEMLAESLIIEIESLLLR
B28: LC3A_28_837 (protein)
chain: SHAEEEIERAKAALRAAREAGEDVLVEIRIRASMTVEEAQAIMDALEEEVAKLDPSVKVDILVLAEEPLSPEVLQTIADRADAIEAAHPNVTVVIALPEE
B29: LC3A_147_416 (protein)
chain: MTVEVDIDILGKLSEEEVEELVERLKAVAEAHGGKVEAEVEIEELPGGERFVSIKLTVTGIAKEKAQELSNDLIDTVDEFLEENKDKVKGALISVETIEE

The binders below were run against MAP1LC3A, Q9H492 (assay: median log2 fold change of GCK-ALFA target abundance (FLAG IP / Myc IP barcode read proportion) (log2 ratio); each designed protein is fused to an ALFA-tag nanobody in HEK293 cells to bring the named protein to FLAG-tagged glucokinase (GCK); Myc marks an untargeted standard; higher = target protein stabilised (more abundant)). Details: target protein: 3xFLAG-MCP-GCK-ALFA reporter; HEK293 landing pad (RPLP).
Summary of the method: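 The readout is target abundance, the per-binder median log2 ratio of FLAG to Myc barcode read proportions. It came from HEK293 landing-pad cells carrying a recombined ALFA-nanobody-fused binder library, induced with 2 μg mL^−1 doxycycline and transfected with a plasmid for a FLAG-tagged target and a Myc-tagged standard. After 48 h, lysates were immunoprecipitated with anti-FLAG and anti-Myc, and circular RNA barcodes were reverse transcribed, amplified and sequenced. Each barcode needed a proportion of at least 10^−7 in both replicates and each binder at least 3 barcodes per replicate, a pseudocount of 10^−6 was added, and the replicates were pooled.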

| Binder | median log2 fold change |
| --- | --- |
| B1 | 0.0134 |
| B2 | 0.23 |
| B3 | -0.0102 |
| B4 | 0.263 |
| B5 | 0.283 |
| B6 | 0.132 |
| B7 | 0.381 |
| B8 | -0.0929 |
| B9 | 0.327 |
| B10 | 0.232 |
| B11 | 0.329 |
| B12 | -0.196 |
| B13 | 0.00388 |
| B14 | -0.173 |
| B15 | -0.281 |
| B16 | -0.179 |
| B17 | -0.128 |
| B18 | -0.389 |
| B19 | 0.247 |
| B20 | 0.241 |
| B21 | 0.239 |
| B22 | 0.221 |
| B23 | 0.434 |
| B24 | -0.157 |
| B25 | 0.184 |
| B26 | -0.391 |
| B27 | 0.0944 |
| B28 | 0.0521 |
| B29 | -0.319 |
